PubChem BioAssay AID1476 (National Center for Advancing Translational Sciences (NCATS), 2009)
Hit rate of the full screen: of about 200,000 compounds, about 4,500 (2.2%) were called active. Inconclusive means that the source gave no clear call. Such entries were picked first, then a sample of the others. Calls come from the whole dose curve; as a rule, active = well fitted inhibition curve with a large enough effect; inconclusive = small, poorly fitted or top-dose-only effect, or effect the other way; inactive = flat fitted curve, though single readings scatter. Potencies of inconclusive entries are doubtful fits and often do not repeat.

molecular target: Cruzipain (Trypanosoma cruzi) (UniProt P25779); assay: qHTS Assay for Promiscuous and Specific Inhibitors of Cruzain (without detergent); conditions: purified cruzain, Z-FR-AMC fluorescence, no detergent; note: nearly all actives have a fitted effect of over 40% in size;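 for max response, negative = inhibition: plate controls were enzyme without inhibitor for no effect and buffer without enzyme for full effect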
Procedure, shortened: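 Purified cruzain at 1.5 nM, pre-incubated 15 min with compound at room temperature in 100 mM sodium acetate pH 5.5, 5 mM DTT, 0.00005% Triton X-100. Reaction started with 2 uM Z-FR-AMC; AMC fluorescence increase over 60 s gives rate.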
Potency is the fitted concentration of half-maximal effect; tags give direction and shape of the fitted curve.

Sequence of UniProt P25779 (P25779 whole entry, looked up): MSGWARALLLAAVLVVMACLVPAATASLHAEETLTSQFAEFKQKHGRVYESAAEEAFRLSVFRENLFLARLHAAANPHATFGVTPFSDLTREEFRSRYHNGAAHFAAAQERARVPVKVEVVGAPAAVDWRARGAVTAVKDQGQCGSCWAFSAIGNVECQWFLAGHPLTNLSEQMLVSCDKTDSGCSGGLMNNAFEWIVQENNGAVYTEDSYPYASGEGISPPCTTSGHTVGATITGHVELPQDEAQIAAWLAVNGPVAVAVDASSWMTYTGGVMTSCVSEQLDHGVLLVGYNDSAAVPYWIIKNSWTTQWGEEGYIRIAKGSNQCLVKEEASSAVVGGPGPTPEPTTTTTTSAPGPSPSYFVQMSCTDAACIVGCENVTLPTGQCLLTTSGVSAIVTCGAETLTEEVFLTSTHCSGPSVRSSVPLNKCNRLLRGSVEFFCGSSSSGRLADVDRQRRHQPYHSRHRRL

| Structure (SMILES) | Potency | max response, negative = inhibition |
| --- | --- | --- |
| Cc1ccc(CNc2oc(-c3ccc(COc4ccc(Cl)cc4)o3)nc2C#N)cc1 | inconclusive: 2 µM [inhibitor, single point] | – |
| COc1ccc(Nc2nc3c(S(=O)(=O)c4ccc(Br)cc4)nnn3c3ccsc23)c(OC)c1 | – | inactive: 5.42% |
| Cc1ccccc1NC(=O)c1c(NC(=O)c2ccncc2)sc2c1CCC(C(C)(C)C)C2 (stereo not given) | – | inactive: 5.16% |
| NC(=S)N=Nc1c(O)n(Cc2ccc(Br)cc2)c2ccccc12 | inconclusive: 39.8 µM [inhibitor, single point] | – |
| CCOc1ccc(-c2ncncc2-c2ccc(OC)cc2)c(O)c1 | – | inactive: -13% |
| O=C(N/N=C1\CC2CC=CC12)c1ccc(COc2ccccc2)cc1 (stereo not given) | – | inactive: -13.6% |
| COc1ccc(-c2nc(SCC(=O)Nc3ccc4c(c3)OCO4)c(-c3ccccc3)[nH]2)cc1 | inconclusive: 39.8 µM [activator, single point] | – |
| CCc1ccc(NC(=O)C2CCC(CNS(=O)(=O)c3cccs3)CC2)cc1 (stereo not given) | inconclusive: 31.6 µM [inhibitor, single point] | – |
| COc1cc(-c2nc(-c3ccccc3)c(-c3cc([N+](=O)[O-])ccc3C)[nH]2)cc(OC)c1OC | inconclusive: 25.1 µM [activator, single point] | – |
| O=C(Nc1ccc2sc3ccccc3c(=O)c2c1)c1ccccc1Cl | inconclusive: 39.8 µM [inhibitor, single point] | – |
| COC(=O)C1C(=O)C2=C(CC1C)NC(C)=C(C(=O)OC(C)C)C2c1ccc(OC)c(O)c1 (stereo not given) | inconclusive: 39.8 µM [activator, single point] | – |
| CCOc1ccc(CN2C(=O)c3ccccc3Sc3ccc(C(=O)NCCc4ccccc4)cc32)cc1 | inconclusive: 39.8 µM [inhibitor, single point] | – |
| COc1cccc(C2C(C(=O)c3cc4ccccc4o3)=C(O)C(=O)N2c2cc(C)on2)c1OC (stereo not given) | inconclusive: 39.8 µM [activator, single point] | – |
| COc1cc(CCC(=O)N2CCN(S(=O)(=O)c3ccc(C)c(C)c3)CC2)cc(OC)c1OC | inconclusive: 31.6 µM [activator, single point] | – |
| Cc1cccc(C)c1NC(=O)Cn1cnc2c(=O)n(C)c(=O)n(C)c21 | – | inactive: -2.91% |
| Cc1cccc(NC(=O)CSC2=Nc3ccccc3C3=NC(CCC(=O)NCc4ccc(F)cc4)C(=O)N23)c1 (stereo not given) | – | inactive: 2.01% |
| CCOc1cc2[nH]c(=S)n(CCc3ccc(OC)c(OC)c3)c(=O)c2cc1OCC | inconclusive: 31.6 µM [activator, single point] | – |
| COc1ccc(Nc2ncnc3c2c(-c2ccccc2)cn3-c2ccc(C)c(Cl)c2)cc1OC | – | inactive: -0.937% |
| COc1ccc(CNc2cc(-c3cccc(NS(C)(=O)=O)c3)ncn2)c(OC)c1 | – | inactive: 3.6% |
| Cc1c(CCC(=O)O)c(=O)oc2cc3occ(-c4ccc(F)cc4)c3cc12 | inconclusive: 39.8 µM [activator, single point] | – |

| Structure (SMILES) | Potency | max response, negative = inhibition |
| --- | --- | --- |
| CN(C)/C=C(/C(=O)c1ccc(Cl)cc1)S(=O)(=O)c1ccc(Cl)cc1 | inconclusive: 31.6 µM [inhibitor, single point] | – |
| CCc1ccc2c(c1)C1(SC(NC(C)=O)=NN1C(C)=O)C(=O)N2C(C)C (stereo not given) | inconclusive: 39.8 µM [activator, single point] | – |
| Cc1ccc2nc(-c3cc(N)cc(N)c3)oc2c1 | inconclusive: 31.6 µM [inhibitor, single point] | – |
| COc1ccc(CCNC(=O)C2CCN(S(=O)(=O)N3CCCCCC3)CC2)cc1OC | inconclusive: 25.1 µM [activator, single point] | – |
| CCOC(=O)N1CCC(NC(=O)c2cnn3c2NC(c2ccco2)CC3C(F)(F)F)CC1 (stereo not given) | inconclusive: 25.1 µM [activator, partial curve] | – |
| CCOc1ccc(C2C(C(=O)OC)=C(C)NC3=C2C(=O)c2ccccc23)cc1OC (stereo not given) | inconclusive: 39.8 µM [activator, single point] | – |
| CCOC(=O)Cc1ccc(NC(=O)n2ncc3cc(Cl)ccc32)cc1 | inconclusive: 39.8 µM [activator, single point] | – |
| COC(=O)CN=C1OC(=O)N2C(=O)C3=C4C(C[C@H]5C(=O)N(c6ccccc6)C(=O)[C@H]5[C@H]4[C@@]12Cc1ccccc1)[C@H]1C(=O)N(c2ccccc2)C(=O)[C@H]1[C@H]3C (stereo not given in full) | – | inactive: 1.1% |
| C[C@@H]1C(c2cccc(Cl)c2)=NN(c2ccc(Br)cc2)[C@H]1C(=O)N1CCOC1=O | inconclusive: 39.8 µM [inhibitor, single point] | – |
| COCCOC(=O)c1c(C)oc2c1cc(NS(=O)(=O)c1ccc(Cl)c(C)c1)c1ccccc12 | – | inactive: 1.22% |
| COc1cccc(NC(=O)CSc2nc3c(c(-c4ccco4)c2C#N)CCCC3)c1 | active: 6.31 µM | – |
| Cc1cc(OCc2ccc(C(=O)NN=C3CCCC3)cc2)ccc1Cl | inconclusive: 31.6 µM [activator, single point] | – |
| O=C(CSc1nccn1-c1ccc(Cl)cc1)Nc1cccc2ccccc12 | – | inactive: 9.1% |
| Cc1ccc(C)c(N(CC(=O)N/N=C/c2ccc(-c3ccc([N+](=O)[O-])cc3)o2)S(=O)(=O)c2ccccc2)c1 | inconclusive: 3.16 µM [inhibitor, full curve] | – |
| COc1ccc(C2CC(=O)c3cnc4c(-c5ccccc5)c(C)nn4c3C2)cc1OC (stereo not given) | – | inactive: -3.03% |
| CCCCCn1c(SCC#N)nc2cc(C(=O)NCC3CCCO3)ccc2c1=O (stereo not given) | inconclusive: 31.6 µM [activator, single point] | – |
| COc1ccc2c(c1)CC(C(=O)Nc1cccc(C)c1C)CO2 (stereo not given) | – | inactive: 5.51% |
| Brc1ccc(/C=N/Nc2ncnc3c2cnn3Cc2ccccc2)cc1 | inconclusive: 31.6 µM [inhibitor, single point] | – |
| CCOC(=O)c1c(C)oc2c1c(C=NCc1ccccn1)c(O)c1ccccc12 | inconclusive: 31.6 µM [activator, single point] | – |
| COc1ccc(C(=O)C(C)OC(=O)c2cccc(S(=O)(=O)Nc3cc(Cl)c(OC)cc3OC)c2)cc1 (stereo not given) | inconclusive: 39.8 µM [inhibitor, single point] | – |
